According to patent publication US20100095387A1, “METHODS AND REAGENTS FOR SCREENING NEW DRUGS AND FOR TREATING ION PUMP ASSOCIATED DISORDERS AND DISEASES” (priority 2005, published 2010):

Target: T1, endogenous agrin-α3Na+/K+-ATPase complex (Mus musculus, UniProt Q6PIC6)
T1 construct: a 110 kDa band characteristic of the native α3Na+/K+-ATPase; endogenous in cells; host or cells: cultured mouse cortical neurons; also cortical slices from 12-day-old mice
Method: Membrane impermeant chemical cross-linking agents BS^3 and DMA were used to stabilize the bond between agrin and its binding sites on cell surface membranes. Cultured neurons were washed briefly in PBS containing 10 mM EDTA followed by preincubation with one or more agrin fragment in PBS^2+ for 30 minutes at room temperature and then cooled on ice prior to addition of a 10× solution of cross-linking agent to a final concentration of 0.1 mM. The cross-linking reaction was allowed to proceed for 30 minutes after which any unreacted cross-linker was quenched and removed by washing with ice cold PBS^2+ containing 50 mM ethanolamine. For immunoblot analysis, cells were scraped into ice-cold TI buffer (20 mM Tris, pH 7.4; 10 mM EDTA; protease inhibitors (Sigma, P8340)) then Dounce homogenized and membrane fraction recovered by centrifugation. For the immunoprecipitation studies, cells were scraped and homogenized in TI buffer containing 150 mM NaCl and 0.5% Triton X-100. Cell extracts were cleared by centrifugation and aliquots of the detergent soluble fraction incubated with the appropriate antibody at 4° C. overnight. Antigen-antibody complexes were precipitated with either protein A or protein G and resuspended in SDS-PAGE sample buffer for immunoblot analysis. […]

B1: C-Ag15: 15-kD COOH-terminal fragment of agrin created by deleting 37 amino acids from the NH2 terminus of C-Ag20, SEQ. ID NO. 3 (protein)
chain: MDPWIGKAAERADYMALAIVDGHLQLSYDLASQPVVLRSTVKVNTNRWLRVRAHREHREGSLQVGNEAPVTSSSPLGATQLDTDGALWLGGLQKLPVGQPLPKAYGTGFVGCLRNVVGHRQLHLLEDAVTKPELRPCPTLNSKLGPEQKLISEEDLNSAVDHHHHHH
modifications: Synthetically produced sequence
In the case of B1, the “formation of endogenous agrin-α3Na+/K+-ATPase complex” value is reported as “blocked”.
